The structures appear in SMILES notation. The full ranking holds about 110,000 compounds; the median of “z-score” is about -0.1, and the highest 2% start at about 2. Some of the results follow. The source made the active and inactive calls.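 The calls were made as follows: active = z-score in the third read window above 3 or below -3; inactive = the rest.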

The target in this assay is Metabotropic glutamate receptor 8 (Rattus norvegicus) (UniProt P70579). Description: rat mGluR8 modulators via GIRK flux, primary screen, cell-based, thallium flux, HTS (AID 488969). Particulars: HEK293 rat mGluR8, GIRK (G protein-gated inwardly rectifying potassium channel) thallium flux, FluoZin2; at 10 µM; stronger effect = higher value; submaximal glutamate (EC20) added with thallium.
UniProt P70579, sequence (P70579 whole entry, looked up): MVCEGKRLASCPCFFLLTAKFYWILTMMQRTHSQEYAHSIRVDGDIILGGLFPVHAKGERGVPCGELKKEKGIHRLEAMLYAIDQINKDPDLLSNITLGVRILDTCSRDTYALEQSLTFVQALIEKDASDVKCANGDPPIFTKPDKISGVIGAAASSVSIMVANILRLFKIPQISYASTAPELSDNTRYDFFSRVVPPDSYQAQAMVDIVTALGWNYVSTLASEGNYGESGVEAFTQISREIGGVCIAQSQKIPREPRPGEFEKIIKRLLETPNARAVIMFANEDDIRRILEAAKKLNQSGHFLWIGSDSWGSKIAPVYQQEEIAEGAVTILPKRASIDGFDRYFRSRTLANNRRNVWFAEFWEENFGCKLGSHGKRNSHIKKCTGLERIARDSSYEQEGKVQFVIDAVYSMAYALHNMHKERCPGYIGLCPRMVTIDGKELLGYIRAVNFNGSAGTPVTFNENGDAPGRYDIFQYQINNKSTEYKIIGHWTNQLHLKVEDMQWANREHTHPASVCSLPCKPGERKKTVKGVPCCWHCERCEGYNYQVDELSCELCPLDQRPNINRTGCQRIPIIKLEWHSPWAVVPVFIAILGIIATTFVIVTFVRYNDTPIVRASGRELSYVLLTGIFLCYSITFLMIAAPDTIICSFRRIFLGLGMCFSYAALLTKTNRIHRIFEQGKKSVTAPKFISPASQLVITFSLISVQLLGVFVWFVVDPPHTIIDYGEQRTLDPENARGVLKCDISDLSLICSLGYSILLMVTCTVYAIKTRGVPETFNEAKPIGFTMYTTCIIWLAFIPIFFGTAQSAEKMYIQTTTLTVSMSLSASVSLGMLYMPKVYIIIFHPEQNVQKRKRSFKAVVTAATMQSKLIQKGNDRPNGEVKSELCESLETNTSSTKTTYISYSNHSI
With `CCc1c(C)nc2ncnn2c1N1CCCC(C(=O)NCCc2ccccc2)C1` (configuration not stated), the z-score came to 0.12.

The compound `Cc1ccc2cccc(NC(=S)NC(=O)c3ccccc3)c2n1` had a z-score of 1.02.

On to `Cc1noc(C)c1C(=O)OCC(=O)Nc1ccccc1Oc1ccccc1`, for which the z-score was -0.286.

`Cn1nc(CC(=O)NC2CCCCCC2)c2ccccc2c1=O` showed a z-score of 0.0187.

On to `O=C(O)CCc1ccc(-c2ccccc2)o1`, for which the z-score is 0.23.

For `COc1cc(NS(=O)(=O)c2ccc(NS(=O)(=O)c3ccccc3)cc2)nc(OC)n1`, the z-score is -0.542.

`COc1ccc(NC(=O)CSc2nnc(-c3ccccn3)n2N)c(OC)c1`: the z-score is 0.305.

Turning to `CN1CCC(OC(=O)COc2ccccc2)CC1`, the z-score was -0.0301.

Compound `CC1(C)Cc2ccccc2C(/C(=N/O)C(N)=O)=N1` yielded a z-score of -0.57.

`CCOP(=O)(c1ccccc1)c1nc(-c2ccccc2Cl)oc1N1CCCCC1` (configuration not stated) returned a z-score of -0.646.

`O=C(CN1C2=NCCN2c2ccccc21)c1ccc2c(c1)OCO2` showed a z-score of 0.194.

Compound `Cc1cccc(C)c1NC(=O)C1c2ccccc2Oc2ccccc21` registered a z-score of 0.0271.

For the compound `CCC(C)NC(=O)NC1C(NC(=O)NC(C)CC)N(C)C(=O)N1C` (configuration not stated), the z-score was 0.0351.

The compound `O=C(c1cccc(N2C(=O)C3CC=CCC3C2=O)c1)N1CCCCCC1` (configuration not stated) came in with a z-score of -0.249.

Compound `CCOc1cccc(NC(=O)C2CC(=O)N(C)C(=Nc3cccc(F)c3)S2)c1` (configuration not stated) came in with a z-score of 0.605.

In the case of `COc1cc2c(cc1OC)C(C)N(C(=O)c1ccc(Br)o1)CC2` (configuration not stated), the z-score is -0.202.

`COc1ccc(Oc2coc3cc(OC(=O)c4cccs4)ccc3c2=O)cc1`: the z-score was -0.0373.

Turning to `Cn1nnnc1SCC(=O)N1CCN(c2ccccc2)CC1`, the z-score is 0.637.

As for `COC(=O)N(NC(=O)C(O)(c1ccccc1)c1ccccc1)c1ccc(C)cc1`, the z-score was -0.383.

As to `O=C(NCc1cccs1)C1CCCCC1`, the z-score is -0.167.

In turn, `COc1ccc(CCNc2oc(COc3ccc(F)cc3)nc2C#N)cc1` yielded a z-score of -0.0977.

As to `CC(=O)N(C(C)=O)S(=O)(=O)c1ccc(N=NN2CCOCC2)cc1`, the z-score was -0.141.

Regarding `C=C(C)c1cccc(C(C)(C)NC(=O)Nc2ccc(C(C)=O)cc2)c1`, the z-score is -0.211.

Turning to `CCOC(=O)C(NC(=O)CC)C(O)c1cccc([N+](=O)[O-])c1` (configuration not stated), the z-score was -0.0778.

In the case of `CC(C)CNC(=O)c1cccc(NC(=O)Cc2ccc(Br)cc2)c1`, the z-score was -0.457.

Compound `CC(NC(=O)Cc1ccc(F)cc1)c1ccc(F)cc1` (configuration not stated) had a z-score of -0.227.

On to `c1ccc(OCCCN2CCCC2)cc1`, for which the z-score came to 0.00842.

The compound `CCN(CC)C(=O)Cn1c(=O)n(CCCCCC(=O)Nc2ccccc2)c(=O)c2sccc21` yielded a z-score of -0.35.

Turning to `Cc1ccnc2nc(C(=O)OCC(=O)Nc3ccc4c(c3)OC(F)(F)O4)nn12`, the z-score came out at 0.14.

`COCCOC(=O)C1=C(C)Nc2nc(C)nn2C1c1ccc(F)cc1` (configuration not stated) gave a z-score of -0.236.

Compound `CCCC1CCc2c(sc(NC(=O)c3cccs3)c2C(N)=O)C1` (configuration not stated) gave a z-score of 0.0373.

For `O=C(OC(C(=O)NCC1CCCO1)c1ccc(F)cc1)c1cccs1` (configuration not stated), the z-score is -0.0339.

The compound `CCC1(C)Cc2c(sc3nc4n(c(=O)c23)CCS4)CO1` (configuration not stated) showed a z-score of -0.566.

Compound `Cc1ccc(C(=O)Nc2ccc(Br)c(C(F)(F)F)c2)cc1` came in with a z-score of -0.0791.

Compound `Brc1ccccc1-c1nnc(-c2cccnc2)o1` displayed a z-score of -0.13.

`Cc1noc(C)c1S(=O)(=O)N1CCC(C(=O)N(C)Cc2ccccc2)CC1` returned a z-score of -0.182.

With `COCCn1c(CN2CCN(C)CC2)nc2c1c(=O)n(C)c(=O)n2C`, the z-score was -0.268.

`CCN1CCCC1CNC(=O)C(NC(=O)C1CCC(C)CC1)C(C)C` (configuration not stated) had a z-score of 0.106.

In the case of `CNC(=O)CN(C)S(=O)(=O)c1ccc(F)cc1`, the z-score is -0.224.

The compound `CN(CCOC(=O)c1ccccc1)Cc1ccccc1` had a z-score of -0.0538.

On to `C#CCSc1nnc(-c2ccc(OC)cc2)o1`, for which the z-score is -0.173.

`O=C(c1ccc2snnc2c1)N1CCN(c2ccccc2)CC1`: the z-score is -0.398.

`O=C1CCCc2ccccc2N1Cc1c(Cl)cccc1Cl` showed a z-score of -1.28.

`O=C(CSc1nnnn1-c1ccc2c(c1)OCCO2)c1cccc2c1OCCO2` yielded a z-score of -0.744.

`CCOc1cccc(OCCOCCN(C)Cc2ccccc2)c1` displayed a z-score of 0.36.

Consider `COCCCn1c(SCc2nnc(-c3ccccc3)o2)nc2sc3c(c2c1=O)CCC3`, for which the z-score is -0.256.

`CN(C)S(=O)(=O)c1cccc(C(=O)OCC(=O)NC2CCCc3ccccc32)c1` (configuration not stated) had a z-score of -0.456.

`Cc1ccc(-n2nnnc2-c2cnc(N3CCCC3)nc2C(F)(F)F)cc1` yielded a z-score of -0.229.

`CC(=O)NCCNc1ccc([N+](=O)[O-])cn1` had a z-score of -0.107.

Compound `Cc1ccc(Cc2cnc(N3C(=N)SC(c4ccccc4)C3=O)s2)cc1` (configuration not stated) displayed a z-score of -0.268.

Consider `CCOC(=O)c1[nH]c2c(c1C)C(=O)CC(c1ccc(OCC)c(OC)c1)C2` (configuration not stated), for which the z-score is -0.395.

As for `c1ccc2c(c1)ncn2-c1ccc(-c2ccnc(-c3ccncc3)n2)cc1`, the z-score was -0.331.

The compound `Cc1cc(S(=O)(=O)N2CCN(c3ccccc3C)CC2)ccc1F` displayed a z-score of -0.0508.

Regarding `CCOC(=O)c1ccc(OCc2c(C)noc2C)cc1`, the z-score is -0.679.

In turn, `CCCC(C)NC(=O)C1CCN(S(=O)(=O)c2ccccc2)CC1` (configuration not stated) displayed a z-score of -0.301.

The compound `Cc1ccc(NC(=O)CN2C(=O)S/C(=C\c3cc(C)n(C)c3C)C2=O)cc1` yielded a z-score of -0.307.

`Cc1cc(C(=O)Nc2cccc(C(=O)O)c2)c(C)o1` showed a z-score of -0.457.

As to `COc1ccc(N(C(=O)c2cccnc2)S(=O)(=O)c2ccc3c(c2)n(C)c(=O)n3C)cc1`, the z-score came to 0.0313.

`Cc1ccc(C(=O)CC2SC(N)=NC2=O)cc1` (configuration not stated): the z-score was 0.0278.

Compound `O=C(NNC(=S)Nc1ccc(Br)cc1Cl)c1ccncc1` registered a z-score of 1.44.

Turning to `O=C(NC(Cc1c[nH]c2ccccc12)C(=O)O)c1ccco1` (configuration not stated), the z-score is -0.347.

`COc1cccc(CNC(=O)Cn2cc3c(n2)CCCCC3)c1` registered a z-score of -0.00462.

Turning to `CCNc1nnc(-c2ccncc2)s1`, the z-score is -0.233.

For `COc1ccc(Nc2nc(-c3cccs3)cs2)cc1`, the z-score was -0.0486.

As for `COC(=O)Cn1cnc2ccccc2c1=O`, the z-score is -0.0598.

The compound `COCCN1Cc2cccc(C(=O)N3CCN(c4cc(C)ccc4C)CC3)c2C1=O` yielded a z-score of 0.281.

Consider `CC(NC(=O)Cc1c(F)cccc1Cl)C1CCCO1` (configuration not stated), for which the z-score amounted to 0.00512.

In turn, `Cc1noc(C)c1COC(=O)c1cc2ccccc2cc1O` yielded a z-score of -0.301.

Consider `COc1ccc(S(=O)(=O)N(CCCN2CCOCC2)Cc2cccc3ccccc23)cc1`, for which the z-score stood at 0.0075.

For the compound `Cc1cc(NC(=O)c2cc3nc(C4CC4)cc(C(F)(F)F)n3n2)no1`, the z-score was found to be 0.0343.

Turning to `O=C(CCNC(=O)Cn1ccc2ccccc2c1=O)NCCCN1CCN(c2ccc(F)cc2)CC1`, the z-score was 0.148.

For the compound `C/C(=N\OC(=O)c1ccc(F)cc1)c1nccs1`, the z-score was determined as 0.407.

Compound `COC(=O)c1sc(S(=O)(=O)N2CCN(c3ccc(OC)cc3)CC2)c(C(=O)OC)c1C` returned a z-score of -0.22.

Turning to `O=C(NCc1ccccn1)c1ccc(CS(=O)(=O)Cc2ccc(Cl)cc2)o1`, the z-score was -0.182.

Regarding `CCOC(=O)c1c(C)[nH]c(C(=O)NNC(=O)c2ccc(C(C)(C)C)cc2)c1C`, the z-score came to 0.0237.

The compound `Cc1[nH]n(-c2ccccc2)c(=O)c1-c1cccc(Cl)c1` yielded a z-score of 0.257.

For `CCOc1ccccc1-n1nnnc1SCc1nc2ccccc2s1`, the z-score is -0.0391.

For the compound `O=C(Nc1nnc(Cc2ccc(Cl)cc2)s1)c1cccs1`, the z-score was -0.0593.

Compound `NS(=O)(=O)c1ccc(NC(=O)CSc2nnc(Cc3cccs3)n2-c2ccccc2)cc1` registered a z-score of -0.158.

Regarding `O=C(c1ccco1)N1CCN(Cc2cccc(F)c2)CC1`, the z-score came to 0.086.

`COc1ccc(-c2csc(C)n2)cc1OC` had a z-score of -0.285.

`CC1CCCN(S(=O)(=O)c2ccc(C(=O)Nc3ccccc3-c3nc4ccccc4[nH]3)cc2)C1` (configuration not stated) registered a z-score of -0.205.

Compound `COc1ccc(CCN2C(=O)c3[nH]nc(-c4ccccc4O)c3C2c2ccc(C)cc2)cc1OC` (configuration not stated) registered a z-score of 0.636.

Turning to `Cc1cccc(C)c1N(CC(=O)Nc1cc(Cl)ccc1Oc1ccccc1)S(C)(=O)=O`, the z-score came to 0.373.

As to `CC12C(=O)N(c3ccccc3C(=O)O)C(=O)C1C1C=CC2C1` (configuration not stated), the z-score came to 0.0405.

The compound `Cc1cc(C)nc(NS(=O)(=O)c2ccc(N/C=C\C(=O)c3ccc(Cl)cc3)cc2)n1` yielded a z-score of -0.142.

In turn, `CN1CCN(C(=O)c2ccccc2-c2ccccc2C(=O)O)CC1` yielded a z-score of -0.138.

As for `Cc1ccc(-c2[nH]n3c(=O)c4c(nc3c2C)CCCC4)cc1`, the z-score is active: 11.

Compound `Cc1nc(N/C(N)=N/S(=O)(=O)c2ccc([N+](=O)[O-])cc2)nc2ccccc12` displayed a z-score of 0.523.

As for `CCOC(=O)C1C(=O)NC(N2CCOCC2)=NC1c1ccco1` (configuration not stated), the z-score is -0.222.

As to `COc1ccc(C(=O)O/N=C/c2c(C(F)(F)F)nn(C)c2SCc2ccccc2Cl)cc1`, the z-score was 0.622.

For the compound `C=CCOc1cccc(/C=N/NC(=O)C(=O)NCc2ccco2)c1`, the z-score was found to be 0.452.

Regarding `O=C(C1CC1)n1cc(C(=S)N2CCOCC2)c2ccccc21`, the z-score is -0.165.

`Cc1ccc2nsnc2c1S(=O)(=O)N1CCN(Cc2ccc3c(c2)OCO3)CC1` returned a z-score of -0.0391.

`C=CCNC(=O)c1snnc1-c1ccccc1` gave a z-score of -0.0951.

As to `COC(=O)c1cnn(-c2cc(Oc3ccccc3)ncn2)c1N`, the z-score is -0.178.

Take `Cc1cc(NS(=O)(=O)c2ccc(NC(=O)C(C(C)C)N3C(=O)c4ccccc4C3=O)cc2)nc(C)n1` (configuration not stated): the z-score came out at 1.19.

For `CCOC(=O)CSc1nc2cc(OC)ccc2cc1C#N`, the z-score was -0.215.

The compound `Cc1ccc(-n2c(C)cc(C(=O)COC(=O)C3=NNC(=O)CC3)c2C)cc1` had a z-score of -0.922.

The compound `N#CC1=C(O)CCCn2c1nc1ccccc1c2=O` registered a z-score of -0.569.

`Cc1ccccc1OCC(=O)Nc1ccc2c(c1)C(=O)c1ccccc1C2=O` came in with a z-score of 0.18.

In turn, `CC(=O)Nc1ccc(C)cc1NC(C)=O` showed a z-score of -0.00242.

Turning to `O=S(=O)(Nc1ccc2c(c1)nc1n2CCOC1)c1ccc(Cl)cc1`, the z-score was -0.0886.

`CCOC(=O)N1CCN(C(=O)c2ccc(C)c(S(=O)(=O)Nc3ccccc3)c2)CC1` returned a z-score of -0.0994.

As to `O=[N+]([O-])c1ccc(N2CCN(S(=O)(=O)c3ccccc3)CC2)cc1NCCN1CCOCC1`, the z-score is -0.342.

`Cc1ccc(NC(=O)c2nc[nH]c2C(=O)N2CCCCC2)c(C(=O)c2ccccc2)c1` returned a z-score of -0.675.

`Cc1cc(C(=O)N2CCCc3ccccc32)no1`: the z-score was 0.411.

As for `O=C1c2cccc3cccc(c23)C(=O)N1CCN1CCN(CC(O)COc2ccc3ccccc3c2)CC1` (configuration not stated), the z-score was determined as 0.0371.

For the compound `CCOc1ccc2[nH]c(=O)c(CN(Cc3cccnc3)C(=O)Nc3ccccc3OC)cc2c1`, the z-score was -0.284.

`O=C(O)c1ccc(NC(=S)NC2CCCCC2)cc1`: the z-score came to 0.13.

Regarding `CCOC(=O)c1c(NC(=O)Cc2cccs2)sc(C(=O)NC2CCCCC2)c1C`, the z-score is -0.382.

In turn, `N#Cc1ccc(NC(=O)c2sc3cc(C(F)(F)F)cnc3c2-c2cccs2)cc1` came in with a z-score of 0.118.

For the origin of these results see PubChem BioAssay AID488969 (Vanderbilt High Throughput Screening Facility, 2010).
